Out of some 43,000 compounds screened, about 200 (0.47%) were called active. Roughly 12% stayed inconclusive and do not appear here. Calls follow the shape of the dose curve; as a rule, active = well fitted cell-killing curve with a large enough effect; inconclusive = small, poorly fitted or top-dose-only effect, or effect the other way; inactive = flat fitted curve, though single readings scatter. The list shows a part of the results.
Experiment: Cell viability qHTS assay in S16 Pmp22-F2sN cells; also: nearly all actives have a fitted effect of over 65% in size
Details: S16 Pmp22-F2sN Schwann cells (luciferase reporters placed in the Pmp22 gene) viability, CellTiter-Glo, 24 h; series mostly up to 57.5 µM; activity change, negative = cytotoxicity: at the top concentration
Procedure, shortened: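 S16 Schwann cells carrying the Pmp22-F2sN reporter, seeded in 1536-well format, were exposed to library compounds for 24 h at 37C. Viability was read as CellTiter-Glo luminescence after 15 min at room temperature.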
% is scaled to controls: 0 for no effect and ±100 for the full control effect.

Compound | activity change, negative = cytotoxicity
Cn1ccc2c(OCC(=O)NCc3ccccc3Cl)cccc2c1=O | inactive: 7.19%
CCc1ccc(CNC(=O)c2ccc3nc(C(C)C)oc3c2)cc1 | inactive: 7.14%
CCc1ccc(NC(=O)C(=O)NCC(c2cccnc2)N2CCN(C)CC2)cc1 (stereo not drawn) | inactive: 0.288%
COc1ccc(OC(C)c2nc3ccccc3[nH]2)cc1 (stereo not drawn) | inactive: -5.13%
O=C(Cn1ncc2c3ccccc3n(Cc3ccccc3)c2c1=O)Nc1ccccc1C(F)(F)F | inactive: 13.7%
COc1ccc(OC)c(CNC(=O)CCCn2nc(C)c3c(C)n(-c4ccc(C)cc4)nc3c2=O)c1 | inactive: -6.14%
CCn1ccc2cc(S(=O)(=O)N3CCCN(C(=O)Nc4cc(Cl)ccc4C)CC3)ccc21 | inactive: -0.884%
CC(C)c1ccc(NS(=O)(=O)c2ccc3[nH]cc(C(=O)N4CCCC4)c(=O)c3c2)cc1 | inactive: -1.31%
COc1cccc(CNC(=O)Cc2c(C)c3c(cc(C)c4c(C)coc43)oc2=O)c1 | inactive: 4.63%
CCOc1ccc(NC(=O)Nc2ccc3snnc3c2)cc1 | inactive: 2.39%
COc1ccc2c(c1)-c1nc(NC(=O)c3ccc(C)cc3)sc1CC2 | inactive: -26.5%
Cc1cc(C)cc(-n2c(SCC(=O)NCC3CCCO3)nc3c([nH]c4ccccc43)c2=O)c1 (stereo not drawn) | inactive: 3.9%
CCOc1ccc(-c2cc(NC(=O)c3ccc(C)cc3)c(C(=O)OC)s2)cc1 | inactive: -2.5%
COc1ccc(-c2noc(-c3ccc(NCCc4ccccc4)c([N+](=O)[O-])c3)n2)cc1OC | inactive: 5.16%
CCCC(=O)C1=C(c2ccc(C)c(C)c2)N(C(=O)CCC)n2c(CC)nnc2S1 | inactive: -26.8%
CCOc1ccccc1CNC(=O)c1cnc2sc(N3CCCC3)nn2c1=O | inactive: -2.71%
CCOCCCn1c(SCC(=O)Nc2cccc(OC)c2)nc2ccccc2c1=O | inactive: 0.509%
CCCN1C(=O)c2ccccc2CC1(C)C(=O)NC1CCCCC1 (stereo not drawn) | inactive: 17.8%
COc1ccccc1NC(=O)C1CCN(S(=O)(=O)c2ccc3c(c2)oc(=O)n3C)CC1 | inactive: 2.3%
Cc1ccc(NC(=O)N2CCN(c3nnc(C)c4c(C)n(-c5ccccc5)nc34)CC2)cc1Cl | inactive: 1.44%
CCN(c1ccc(Cl)cc1)S(=O)(=O)c1nnc(NC(=O)C2CCCCC2)s1 | inactive: 1.79%
Cc1ccc2nc(N(Cc3cccnc3)C(=O)c3ccc4c(c3)OCCO4)sc2c1 | inactive: 2.59%
CCOCCc1nn2c(=O)cc(COC(=O)c3cccs3)nc2s1 | inactive: 0.132%
O=C(NCc1ccc2c(c1)OCO2)c1ccc2c(c1)N(Cc1ccc(F)cc1)C(=O)c1ccccc1S2=O (stereo not drawn) | inactive: -6.29%
CCCCCn1c(=O)[nH]c2cc(C(=O)NCc3ccc(OC)cc3)ccc2c1=O | inactive: -0.36%

Compound | activity change, negative = cytotoxicity
CCOC(=O)c1ccc(NC(=O)CCS(=O)(=O)c2ccc3c(c2)oc(=O)n3C)cc1 | inactive: -27.8%
Cc1ccc(Cl)cc1N1CCN(S(=O)(=O)c2ccc3[nH]c4c(c3c2)CCCC4)CC1 | inactive: -20.8%
Cc1cccc(N2CCN(C(=O)C3CCN(S(=O)(=O)c4cn(C)cn4)CC3)CC2)c1C | inactive: 3.27%
COc1ccccc1NC(=O)CN1C(=O)c2cccc3cccc1c23 | inactive: 1.31%
CCCCN(CCCC)CCNC(=O)CN1C(=O)CSc2ccc(S(=O)(=O)N3CCCCC3)cc21 | inactive: 3.4%
Cc1cccc(CN2C(=O)CC(c3ccc(Cl)cc3)c3c(C)nn(-c4nc(C)cc(C)n4)c32)c1 (stereo not drawn) | inactive: 1.51%
COc1ccccc1N(CC(=O)Nc1ccccc1F)S(C)(=O)=O | inactive: 4.62%
CCOc1ccc(-n2nc3cc(C)c(NC(=O)CC)cc3n2)cc1 | inactive: 24.9%
CCc1ccc(NC(=O)C(CC)n2nnc(C(=O)OC)c2C(=O)OC)cc1 (stereo not drawn) | inactive: 0.494%
COc1ccc(C2NC(=O)c3c(sc4c3CCN(C)C4)N2)cc1O (stereo not drawn) | inactive: 21.7%
CCCNc1nc(NCc2ccccc2OC)c2cnn(C)c2n1 | inactive: -7.63%
CCN(CCCNC(=O)c1cc2c(=O)[nH]c3ccc(C)cc3c2s1)c1ccc(C)cc1 | inactive: -1.75%
COc1ccc(C2C(=O)N(C3CCCCC3)CC(=O)N2Cc2ccccc2Cl)cc1OC (stereo not drawn) | inactive: 11.8%
COc1ccc(-c2nn(CC(=O)Nc3ccccc3F)c3c2cnc2ccc(F)cc23)cc1 | inactive: 2.33%
CCOC(=O)c1cc(OC(=O)c2ccc(Cl)cc2)n(-c2ccccc2)n1 | inactive: 0.477%
Cc1ccc(C)c(N2CCN(CCCNC(=O)Cn3ncc4c([nH]c5ccccc54)c3=O)CC2)c1 | inactive: -5.79%
Cc1ccc(-c2nc(S(=O)(=O)c3ccc(C)cc3)c(N3CCN(c4ccccc4)CC3)o2)cc1 | inactive: -6.57%
COc1ccc(CNC(=O)Cn2ncn3nc(-c4cccs4)cc3c2=O)cc1 | inactive: -6.54%
COc1ccc(N2CCN(S(=O)(=O)CCNC(=O)c3ccc(C(F)(F)F)cc3)CC2)cc1 | inactive: 13.6%
CCc1ccc(-n2nc(C)c3c(C(=O)NCCc4ccc(OC)c(OC)c4)cc(C)nc32)cc1 | inactive: -5.03%
CCc1cccc(C)c1NC(=O)Cn1c(=O)cc(C(F)(F)F)c2c(C)nn(C)c21 | inactive: 0.161%
Cc1cccc(N2CCN(c3nc4ccccc4c(=O)n3-c3ccc(Cl)cc3)CC2)c1C | inactive: 13.9%
Cc1ccc(C)c(S(=O)(=O)NCC(c2ccco2)S(=O)(=O)c2ccc(F)cc2)c1 (stereo not drawn) | inactive: 2.35%
CCC1CCCCN1C(=O)c1nn(-c2ccc(C)cc2)c(=O)c2c1c1ccccc1n2C (stereo not drawn) | inactive: 5.66%
CCOc1ccc(CCNC(=O)c2cnc3sc(N4CCOCC4)nn3c2=O)cc1 | inactive: 10.6%

Compound | activity change, negative = cytotoxicity
O=C(NCc1cccs1)C1CCN(C(=O)N2CCOc3ccccc32)CC1 | inactive: 3.19%
O=C(Nc1c(-c2ccccc2)nc2ccccn12)c1ccc(Br)cc1 | inactive: -21.8%
Cc1noc(C)c1S(=O)(=O)N(CC(=O)NCc1ccccc1Cl)c1ccc(C(C)C)cc1 | inactive: -13%
O=C(Nc1ccc(F)cc1F)c1c2c(nc3ccccc13)C(=O)N(C1CCCCC1)C2 | inactive: -3.1%
O=C(CCn1c(=O)c2cccn2c2ccc(F)cc21)NCCc1ccccc1Cl | inactive: -13.1%
CCCOc1ccc(Nc2nc(SC)ncc2C(=O)OCC)cc1 | inactive: 2.91%
COC(=O)c1ccc(NC(=O)Nc2nnc(N(C)C3CCCCC3)s2)cc1 | inactive: 11.9%
COc1ccccc1NC(=O)Cn1c(=O)n(Cc2ccccc2)c(=O)c2ccccc21 | inactive: -1.43%
COc1ccc(CN2COc3ccc4c(C)cc(=O)oc4c3C2)cc1 | inactive: 0.582%
COc1cccc(NC(=O)c2oc3ccccc3c2NC(=O)C23CC4CC(CC(C4)C2)C3)c1 | inactive: 7.21%
COc1cccc2c1Oc1nc(-c3ccccc3)nc(SCC(=O)N3CCCCC3)c1C2 | inactive: 0.579%
COc1ccc(NC(=O)C(=O)NCCc2csc(-c3ccc(Cl)cc3)n2)cc1 | inactive: 3.94%
Cc1cc(C)cc(-n2c(SCC(=O)Nc3nnc(C)s3)nc3c([nH]c4ccccc43)c2=O)c1 | inactive: 14.3%
COC(=O)c1ccc(NC(=O)Cc2coc3cc(C)ccc23)cc1 | inactive: 7.64%
COc1ccc(-c2nc3nc(C)cc(Nc4ccc(C(C)=O)cc4)n3n2)cc1 | inactive: -6.7%
Cc1coc2c(C)c3oc(=O)c(CC(=O)N4CCCCC4)c(C)c3cc12 | inactive: 8.63%
CCN(C(=O)COc1cc(=O)n(C)c2ccccc12)c1cccc(C(F)(F)F)c1 | inactive: -0.0206%
CCOc1ccc(CCNC(=O)c2ccc(CS(=O)(=O)Cc3ccccc3Cl)o2)cc1OCC | inactive: 5.11%
Cc1ccccc1CN1CCc2nc(Nc3ccc4c(c3)OCCO4)ncc2C1 | inactive: -21.5%
CCOc1ccc(-c2ccc(NS(=O)(=O)c3cc(C)c(C)cc3C)cc2)nn1 | inactive: -7.91%
CCOc1ccc(C(=O)Nc2ccc(-c3nc4cc(CC)ccc4o3)cc2)cc1 | inactive: 1.97%
O=C(c1cc2c(=O)[nH]c3ccccc3c2s1)N1CCN(c2ccc(F)cc2)CC1 | inactive: 21.6%
CC(NC(=O)CCn1c(=O)c2cccn2c2ccc(F)cc21)c1ccccc1 (stereo not drawn) | inactive: -4.79%
COc1ccc(-n2c(/C=C/c3cc(OC)c(OC)cc3OC)nc3cc4ccccc4cc3c2=O)cc1Cl | inactive: 6.39%
Cc1ccc(OCCSc2nc3ccc(NC(=O)COc4ccc(F)cc4)cc3s2)cc1 | inactive: 21.4%

Compound | activity change, negative = cytotoxicity
O=C(COc1ccccc1)Nc1ccc(C(=O)OCc2cc(=O)n3nc(C4CC4)sc3n2)cc1 | inactive: 4.28%
Cc1nc2nc(SCC(=O)NCc3ccccc3)nn2c(C)c1Cc1ccccc1Cl | inactive: 1%
CCOC(=O)c1cc(-c2ccc(F)cc2)n(CC(=O)NC2CCCCC2)c1C | inactive: 9.29%
Cc1cc(C)n2c(Nc3c(C)cccc3C)c(-c3ccsc3)nc2n1 | inactive: 21%
O=C(CN1CCCN(Cc2ccccc2Cl)S1(=O)=O)Nc1ccc2c(c1)OCCO2 | inactive: 2.02%
O=C(Cc1cccs1)NC1CC(=O)N(c2ccccc2)C1 (stereo not drawn) | inactive: 0.398%
CCc1cccc(C)c1NC(=O)CN1CCCN(Cc2ccc(C)cc2)S1(=O)=O | inactive: -2.88%
Cc1ccc(C)c(CN2CCC(CNC(=O)Cn3ncc4c([nH]c5ccccc54)c3=O)CC2)c1 | inactive: 1.45%
CCn1c2ccccc2c2nnc(N3CCN(c4cccc(C)c4C)CC3)nc21 | inactive: 2.39%
O=C(NCCCN1CCOCC1)c1ccc2c(c1)N(Cc1ccccc1)C(=O)c1ccccc1S2 | inactive: 8.64%
Cc1cccc(OCCCCn2nnc3sc4c(c3c2=O)CCC(C)C4)c1 (stereo not drawn) | inactive: -2.64%
O=C(Cn1nc(N2CCN(c3ccccc3)CC2)ccc1=O)NCc1cccc(Cl)c1 | inactive: 5.34%
CCOC(=O)CSc1nc2sc3c(c2c(=O)n1Cc1ccccc1)CC(C)CC3 (stereo not drawn) | inactive: 27%
Cc1ccc(-n2ncc3c(NCCc4ccccc4)ncnc32)cc1C | inactive: 1.67%
CCOc1ccccc1CNC(=O)CN1C(=O)CCCc2ccccc21 | inactive: -1.28%
CCOc1ccc(NC(=O)NC(C)c2c(-n3cccc3)sc(C)c2C)cc1 (stereo not drawn) | inactive: 0.466%
Cn1c(=O)c2c(nc(NCCc3ccccc3)n2Cc2ccc(Cl)c(Cl)c2)n(C)c1=O | inactive: 8.29%
CC(C)c1nn2c(=O)cc(COC(=O)c3ccccc3NC(=O)c3cccs3)nc2s1 | inactive: 6.22%
CCCN(Cc1cccs1)C(=O)Nc1ccccc1C | inactive: 1.91%
CC1CCCN(c2csc3ccccc3c2=O)C1 (stereo not drawn) | inactive: 0.0615%
COc1ccc(S(=O)(=O)NCCc2cn3ccsc3n2)cc1OC | inactive: 1.45%
CCOc1ccc(N(Cc2cc3cc(C)ccc3[nH]c2=O)C(=O)c2cccc(Cl)c2)cc1 | inactive: 6.56%
COC(=O)c1ccc(OC)c(CN2CCCN(Cc3ccc(C)cc3)S2(=O)=O)c1 | inactive: -4.36%
